Experimental data from publication PMC7819943, “Rice protein-binding microarrays: a tool to detect cis-acting elements near promoter regions in rice”.
This is one part of the list.

Each sequence was assayed against T1, OsWOX13 (Oryza sativa, UniProt Q5QMM3 1-267) (assay: protein-binding microarray (RPBM); PBS, 2% BSA, 51.3 ng/ul salmon testes DNA, 50 uM zinc acetate, 200 nM TF, 25 C, 1 h; high values mean tight binding). Conditions: protein: recombinant; tags: N-terminal polyhistidine and DsRed monomer fusion (pET32a); label: CyDye5-dUTP incorporated in the synthesized complementary strand; 3' TTTTT single-stranded linker to array surface; dsDNA, one strand shown.
T1 sequence: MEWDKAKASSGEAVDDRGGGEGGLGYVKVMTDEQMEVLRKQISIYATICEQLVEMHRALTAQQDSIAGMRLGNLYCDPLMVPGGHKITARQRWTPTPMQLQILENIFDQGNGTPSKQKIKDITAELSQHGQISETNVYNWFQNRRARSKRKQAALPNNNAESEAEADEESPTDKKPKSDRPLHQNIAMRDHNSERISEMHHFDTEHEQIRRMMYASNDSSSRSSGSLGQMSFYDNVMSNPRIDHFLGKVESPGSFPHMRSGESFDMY
Summary of the method: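 Transcription factors were each fused at the N-terminus to a polyhistidine tag plus DsRed and expressed in E. coli BL21-CodonPlus before Ni–NTA purification. Binding to a double-stranded custom Agilent array was carried out with 200 nM protein at 25 °C for 1 h in PBS, 2% BSA, salmon testes DNA and 50 µM zinc acetate. The binding signal is per-feature fluorescence intensity, in arbitrary units, on an Axon 4000B scanner.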

Sequence | binding signal
GTTTGATTATTTGCTGCCTCCAGTGGGTTGGGTGTTCTTGCGGAGTCACCTAGTGCAG | 39100 fluorescence intensity (a.u.)
TGTTTGCGATTGATTTGTACTACACAGTGGGTGCTTCTCCCGGAGTCACCTAGTGCAG | 35300 fluorescence intensity (a.u.)
ACTCGAGATTTTAAGAATCAATTATCTTTCAGTGTACAATCGGAGTCACCTAGTGCAG | 4170 fluorescence intensity (a.u.)
CTTAATTGCTAATACCTGATGAATATTAGAAATATACTAGCGGAGTCACCTAGTGCAG | 38200 fluorescence intensity (a.u.)
GGAAATTTCAATCTAATGTCATAGGAAAACTTCCTCTCCTCGGAGTCACCTAGTGCAG | 36400 fluorescence intensity (a.u.)
ACTACAAATAATAATTGGTTTGCATTGGTGTTAGAATAGGCGGAGTCACCTAGTGCAG | 7200 fluorescence intensity (a.u.)
GTCTGACTGTTTTCCTTATTATATCATTGGATTGGTATCACGGAGTCACCTAGTGCAG | 14600 fluorescence intensity (a.u.)
TGAAGTCCAAATCAAACTATCAATTATATATGCAATGGACCGGAGTCACCTAGTGCAG | 13100 fluorescence intensity (a.u.)
CCAAGATGAATTGGAACTTTGCACACCAACCAAATAGGGGCGGAGTCACCTAGTGCAG | 3580 fluorescence intensity (a.u.)
AGCCAATCACTCACTCACCAAGGTCTCCCACTCCTAGTCACGGAGTCACCTAGTGCAG | 17000 fluorescence intensity (a.u.)
CTGTTCAGCTAATTACTGAAAATATGAGTGGTGGCAAGCCCGGAGTCACCTAGTGCAG | 7260 fluorescence intensity (a.u.)
TCAGCACATGATTAAATCTATTAGAGAATAAATGGGAAATCGGAGTCACCTAGTGCAG | 12600 fluorescence intensity (a.u.)
TAAATTAACTGTGTAAGGTCTGATCATATTTTCTTCTTAACGGAGTCACCTAGTGCAG | 10600 fluorescence intensity (a.u.)
TCCAATAAACAGAGAGTGATGTGGGCTTTCTTTCTGTACACGGAGTCACCTAGTGCAG | 10800 fluorescence intensity (a.u.)
ACAATTAATTAACTTCCATTATCTAAAATCCAAAGGTAAACGGAGTCACCTAGTGCAG | 33600 fluorescence intensity (a.u.)
GCTAAAATTAGTAGTTTGATTGAAATTGGAACGATGTGACCGGAGTCACCTAGTGCAG | 33800 fluorescence intensity (a.u.)
AAAACTATATAATTAGAAATACGGGGATGATAAGCTTTGGCGGAGTCACCTAGTGCAG | 8120 fluorescence intensity (a.u.)
GTCCATTAATGGGAAAATAAGCTCATTTACGCGTGCAGTCCGGAGTCACCTAGTGCAG | 6090 fluorescence intensity (a.u.)
ACGTAATGATATAAATTATACGATACAGATATCCTTAAAACGGAGTCACCTAGTGCAG | 12600 fluorescence intensity (a.u.)
ATTAACTAACTCTGTGATTTATTGTTGTTAACGAAGTTAGCGGAGTCACCTAGTGCAG | 17100 fluorescence intensity (a.u.)
ATGTGTGATTTGTTGCAATAGTAGATAGGAGCATAGATACCGGAGTCACCTAGTGCAG | 15800 fluorescence intensity (a.u.)

Sequence | binding signal
GGATAAATAGATTTATATATTTAGAGTTGGACATAGTTATCGGAGTCACCTAGTGCAG | 27600 fluorescence intensity (a.u.)
ACAAGATAAATTTCTTTCCTGATAACGCCGAGAAGTAGCTCGGAGTCACCTAGTGCAG | 5540 fluorescence intensity (a.u.)
AATATTATTTATATGTAATTACATAAGTAATATGTAATTTCGGAGTCACCTAGTGCAG | 9490 fluorescence intensity (a.u.)
CGCTAATTAGGAAGAGAAGAGATGAGGAGGATGAGGAGATCGGAGTCACCTAGTGCAG | 29600 fluorescence intensity (a.u.)
TTTAAAATTTTAATTGAATTTTCTCTAAACCTCAGTATGACGGAGTCACCTAGTGCAG | 39000 fluorescence intensity (a.u.)
TGCATCCAGATTGACAGTCCGCTCGTTCACACTGTCAAGACGGAGTCACCTAGTGCAG | 22800 fluorescence intensity (a.u.)
TAATTTTAAATTATTTTAATAAGACGAGTGATTAAACAGTCGGAGTCACCTAGTGCAG | 9500 fluorescence intensity (a.u.)
TTTTGGTAAATTTCTTGACAGTAGATGATGGTCATGTGTTCGGAGTCACCTAGTGCAG | 4160 fluorescence intensity (a.u.)
CATTTATATTGATGTTAATGAATCTAAACATATATTCATTCGGAGTCACCTAGTGCAG | 14100 fluorescence intensity (a.u.)
GTTCGCGTGATTAATCAAAGCCTATTCCTTGTCACTATGACGGAGTCACCTAGTGCAG | 12400 fluorescence intensity (a.u.)
CAAAATTTAACTAAGGATTACAACAATCCATAATGATGTACGGAGTCACCTAGTGCAG | 9610 fluorescence intensity (a.u.)
ATTAATTAAGATAGTTGTGATCATCTCCAAGCTTAGCTAACGGAGTCACCTAGTGCAG | 16900 fluorescence intensity (a.u.)
ATTAAATTCTCCATGGTTAATTATACTCTCTGGAATTTTCCGGAGTCACCTAGTGCAG | 5400 fluorescence intensity (a.u.)
TAAATTGATAAATATAGTTAATCCTCTATAGATCAAGAATCGGAGTCACCTAGTGCAG | 19400 fluorescence intensity (a.u.)
AATTTAATTTGAAGTATAAGTGGTTCCTATTTGCTTGAAACGGAGTCACCTAGTGCAG | 14100 fluorescence intensity (a.u.)
GGTTAATGGAGATTCCATATGGCATACGATGGAGGAATTGCGGAGTCACCTAGTGCAG | 8400 fluorescence intensity (a.u.)
CTCATCCAAATTTGTGTTTATAAATGTACTATATATATTTCGGAGTCACCTAGTGCAG | 6890 fluorescence intensity (a.u.)
TAGCAGCCAATTAGTCCACTTAATCACCCATGGATCGCGACGGAGTCACCTAGTGCAG | 13400 fluorescence intensity (a.u.)
TTTGATGCTGATTATAGGAAAATGTAAATGTTTCTATATACGGAGTCACCTAGTGCAG | 6110 fluorescence intensity (a.u.)
TTTAAAATTCTAATCATCATCGTGGATGACTATGTCAGTACGGAGTCACCTAGTGCAG | 10800 fluorescence intensity (a.u.)
CTATCAACTGATTGGCTTTACAAGTTGCAAAATCTATTATCGGAGTCACCTAGTGCAG | 18900 fluorescence intensity (a.u.)
